Measurements reported in PubChem BioAssay AID2100 (National Center for Advancing Translational Sciences (NCATS), 2009).
In all, about 300,000 compounds went through this assay and about 1,200 (0.4%) were called active. The inconclusive results got no clear call from the source; some entries with a clear call stand among them for comparison. Calls come from the whole dose curve; as a rule, active = well fitted inhibition curve with a large enough effect; inconclusive = small, poorly fitted or top-dose-only effect, or another doubt; inactive = no such curve, though single readings can be large or run the other way. Where the call is inconclusive, the potency comes from a doubtful curve fit.

Each compound was assayed against Lysosomal alpha-glucosidase (Homo sapiens) (UniProt P10253) (assay: qHTS Assay for Inhibitors and Activators of Human alpha-Glucosidase Cleavage of Glycogen). Conditions: recombinant GAA, glycogen substrate, Amplex Red glucose oxidase fluorescence; activity change, negative = inhibition: at 76.4 µM (top of the series) unless noted.
Summary of the method: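 Recombinant enzyme (4 nM final) with compounds titrated up to 77 uM and bovine liver glycogen (30 ug) in citrate pH 5.0, 0.01% Tween-20, 37 C 40 min. Released glucose detected by Amplex Red/glucose oxidase (Ex 573/Em 610); AC50 from Hill fits.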
Potency is the fitted concentration of half-maximal effect.
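Throughout, for activity change, negative = inhibition: 0% = full enzyme reaction and -100% = no-enzyme basal signal.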

| Compound | Potency | activity change, negative = inhibition |
| --- | --- | --- |
| COc1cccc(-c2nc(CS(=O)CC(=O)NCc3ccc4c(c3)OCO4)c(C)o2)c1 (centres undefined) | inconclusive: 100 µM [inhibitor, partial curve, poor fit] | – |
| COc1ccc(Cl)cc1NC(=O)[C@H]1O[C@@H]2OC(C)(C)O[C@@H]2[C@H]2OC(C)(C)O[C@H]21 | – | inactive: -9.45% [at 76.3 µM] |
| Cc1ccc2oc(=O)c(/C=C(\O)c3cccs3)nc2c1 | active: 12.6 µM | – |
| Cc1nnc(N/N=C\c2ccc(-c3cccc(C(=O)O)c3)o2)n1N | inconclusive: 8.91 µM [inhibitor, full curve] | – |
| Cc1cc(-c2nnc(SCC(=O)Nc3nccs3)o2)no1 | – | inactive: 2.67% |
| Cc1ccc(NC(=O)Nc2cccs2)cc1 | inconclusive: 20 µM [inhibitor, partial curve] | – |
| C=CCc1cccc(CNc2c(C)n(C)n(-c3ccccc3)c2=O)c1O | inconclusive: 7.94 µM [inhibitor, full curve] | – |
| COc1cc(OC)cc(C(=O)NNC(=S)NCc2ccco2)c1 | inconclusive: 17.8 µM [inhibitor, single point] | – |
| Cc1ccc(Nc2nc(COC(=O)C3CC3)cs2)cc1 | inconclusive: 31.6 µM [inhibitor, partial curve] | – |
| CCOC(=O)c1cccc(NC(=O)CCCn2c(C)c3cnn(-c4ccccc4)c(=O)c3c2C)c1 | – | inactive: 0.917% [at 76.3 µM] |
| O=C1/C(=C/c2cccnc2)SC(=S)N1C1CCS(=O)(=O)C1 (centres undefined) | – | inactive: -18.8% |
| CC12CCC(C(=O)NNc3ccccc3)(OC1=O)C2(C)C (centres undefined) | active: 28.2 µM | – |
| COc1cc(N)ccc1NC(=O)c1cccs1 | inconclusive: 35.5 µM [inhibitor, single point] | – |
| Cc1ccc(NC(=S)NNc2ncc(C(F)(F)F)cc2Cl)c(C)c1 | inconclusive: 39.8 µM [inhibitor, single point] | – |
| Cc1cccc(NC(=S)N/N=C2/CCCCc3ccccc32)c1 | inconclusive: 24.9 µM [inhibitor, partial curve] | – |
| CCCNC(=O)c1ccc2c(=O)c(O)c(C)[nH]c2c1 | inconclusive: 25.1 µM [inhibitor, partial curve] | – |
| O=C(CN1CCN(c2ccc(O)cc2)CC1)N1CCc2ccccc21 | active: 5.01 µM | – |
| COc1ccc(-n2ccn(Cc3ccc(C)cc3)c(=O)c2=O)cc1OC | inconclusive: 7.94 µM [inhibitor, single point] | – |
| S=c1[nH]nc(C2CCCCC2)n1/N=C/C=C/c1ccccc1 | inconclusive: 50.1 µM [inhibitor, single point] | – |
| CN(C)Cc1ccccc1Sc1ccc(O)cc1O | inconclusive: 11.2 µM [inhibitor, single point] | – |
| CC1=C(C(=O)OCC2CCCCC2)C(c2c(F)cccc2Cl)CC(=O)N1 (centres undefined) | – | inactive: 14.2% [at 76.3 µM] |
| COc1ccc2nc(SCC(=O)Nc3ccc(S(=O)(=O)N4CCCC4)cc3)c(C#N)cc2c1 | – | inactive: 1.84% |
| CCC1CCC2(CC1)NNC(=S)NN2 | inconclusive: 39.8 µM [inhibitor, single point] | – |

| Compound | Potency | activity change, negative = inhibition |
| --- | --- | --- |
| Cc1cccc(C2NC(=O)c3c(sc(C)c3C)N2)c1O (centres undefined) | inconclusive: 22.2 µM [inhibitor, single point] | – |
| CCOc1cc(/C=C2\N=C3CCCCCN3C2=O)ccc1O | inconclusive: 2.51 µM [inhibitor, full curve, poor fit] | – |
| CCOc1ccc(NC(C)c2cc(Cl)ccc2O)cc1 (centres undefined) | inconclusive: 17.6 µM [inhibitor, single point] | – |
| CCOP(=O)(OCC)C1NC(=O)N(c2ccccc2)C1=O (centres undefined) | inconclusive: 17.8 µM [inhibitor, partial curve] | – |
| COc1ccc(CNc2ncc(-c3ccccc3)n2C)c(OC)c1OC | inconclusive: 28.2 µM [inhibitor, single point] | – |
| CC(C)Cn1c(-c2csc(C(C)C)c2)n[nH]c1=S | inconclusive: 25.1 µM [inhibitor, partial curve] | – |
| Cc1ccc(NC(=O)CC2Nc3cccc4cccc(c34)NC2=O)cc1 (centres undefined) | inconclusive: 12.6 µM [inhibitor, partial curve] | – |
| COC(=O)c1ccc(N2CCCCC2)c(NC(=O)c2ccco2)c1 | – | inactive: -5.42% |
| CN(C)c1ccc(CN(C(=O)c2ccccc2Br)C2CCS(=O)(=O)C2)cc1 (centres undefined) | inconclusive: 28.2 µM [inhibitor, partial curve] | – |
| Cc1cc(C)nc(N/N=C/c2ccc(N3CCOCC3)cc2)n1 | inconclusive: 56.2 µM [inhibitor, partial curve] | – |
| C=CCNc1oc(-c2ccc(OCC)cc2)nc1C#N | inconclusive: 25.1 µM [inhibitor, single point] | – |
| C/C(=N\Nc1nc2ccccc2s1)c1cccs1 | inconclusive: 6.31 µM [inhibitor, full curve] | – |
| CC(OC(=O)CNC(=O)C12CC3CC(CC(C3)C1)C2)C(=O)Nc1ncc(Cl)cc1Cl (centres undefined) | inconclusive: 3.14 µM [inhibitor, single point] | – |
| Cc1ccccc1Nc1c(-c2ccc(N3CCOCC3)cc2)nc2cnccn12 | inconclusive: 10 µM [inhibitor, partial curve] | – |
| Cc1ccn2c(NC3CCCC3)c(-c3cccs3)nc2c1 | inconclusive: 25.1 µM [inhibitor, single point] | – |
| CC(=O)Nc1ccc(S(=O)(=O)NNC2=NS(=O)(=O)c3ccccc32)cc1 | inconclusive: 6.31 µM [inhibitor, full curve, poor fit] | – |
| CCOC(=O)C1=C(C)N(c2ccc(OC)cc2)C(=O)/C1=C\c1ccc(O)c(OCC)c1 | inconclusive: 35.5 µM [inhibitor, partial curve] | – |
| Cc1onc(-c2ccccc2)c1-c1csc(N/N=C/c2ccccc2)n1 | inconclusive: 35.5 µM [inhibitor, single point] | – |
| Cc1ccc2nc(-c3ccncc3)c(NC3CCCC3)n2c1 | inconclusive: 22.4 µM [inhibitor, partial curve] | – |
| COc1cc(/C=N/n2c(-c3ccccc3)n[nH]c2=S)cc(OC)c1O | inconclusive: 14 µM [inhibitor, partial curve] | – |
| Cc1ccc(NC(CC(=O)c2ccccc2)C(=O)O)cc1Cl (centres undefined) | inconclusive: 28.2 µM [activator, single point] | – |
| CC(=O)Nc1ccccc1NC(=O)C/C(C)=N/NC(=O)c1ccncc1 | inconclusive: 28.2 µM [inhibitor, single point] | – |
| O=C(NNc1nc(-c2ccccc2)c2cc(Br)ccc2n1)c1ccc(S(=O)(=O)N2CCCCC2)cc1 | inconclusive: 11.1 µM [inhibitor, partial curve] | – |

| Compound | Potency | activity change, negative = inhibition |
| --- | --- | --- |
| COc1ccc2[nH]cc(/C=N/NS(=O)(=O)c3ccc(C)cc3)c2c1 | inconclusive: 14.1 µM [inhibitor, partial curve] | – |
| CCCc1[nH]nc2c1C(c1ccc(OC)cc1OC)C(C#N)=C(N)O2 (centres undefined) | inconclusive: 31.4 µM [inhibitor, single point] | – |
| CCCCOc1ccc(N=Cc2cccs2)cc1 | inconclusive: 50.1 µM [inhibitor, single point] | – |
| COc1ccc(C2CC(=O)c3cc(-c4nc(-c5cccc([N+](=O)[O-])c5)cs4)c(=O)n(-c4ccc(F)cc4)c3C2)cc1 (centres undefined) | – | inactive: -0.58% [at 76.3 µM] |
| N/C(CN1CCCC1=O)=N\O | – | inactive: 2.77% |
| Cc1nnc(SCC(=O)Nc2ccc(N(C)C)cc2)[nH]c1=O | inconclusive: 15.8 µM [inhibitor, partial curve] | – |
| Nc1c(N2CCCCC2)c2ccccc2oc1=O | inconclusive: 4.47 µM [inhibitor, full curve] | – |
| O=C1CCCN1S(=O)(=O)c1ccc(F)cc1 | – | inactive: -8.33% [at 76.3 µM] |
| CSc1ccc(/C=C(\NC(=O)c2ccc(C)cc2)C(=O)NN)cc1 | inconclusive: 10 µM [inhibitor, partial curve] | – |
| Cc1cccc(C)c1Nc1c(-c2ccsc2)nc2cccc(C)n12 | – | inactive: -19.3% [at 76.3 µM] |
| CCOC(=O)c1ccc(NC(=O)CCC(=O)OC)cc1 | inconclusive: 4.47 µM [inhibitor, full curve] | – |
| Cc1ccccc1OCCn1cc(/C(N)=N/O)c2ccccc21 | active: 31.6 µM | – |
| Cc1cc(OC(C)C(=O)NC(Cc2c[nH]c3ccc(O)cc23)C(=O)O)c2c(C)c(C)c(=O)oc2c1 (centres undefined) | inconclusive: 3.98 µM [inhibitor, full curve] | – |
| COc1ccc(OC)c(Nc2nc(-c3sc(C)nc3C)cs2)c1 | inconclusive: 24.9 µM [inhibitor, single point] | – |
| CCN1CCN(c2cc(C)c3cc(NC(=O)/C=C/c4ccc(C)cc4)ccc3n2)CC1 | – | inactive: -9.67% [at 76.3 µM] |
| COc1cccc(NC(=O)N(Cc2cn(C)c3ccccc23)C2CCCCCC2)c1 | – | inactive: 4.58% [at 76.3 µM] |
| COc1cc(CNc2ccc3[nH]c(=O)[nH]c3c2)cc(Br)c1OCc1ccccc1F | inconclusive: 35.5 µM [inhibitor, partial curve, poor fit] | – |
| Cc1ccc[n+](C2C(c3ccc([N+](=O)[O-])cc3)C(C#N)=C([S-])NC2(O)C2CC2)c1 (centres undefined) | inconclusive: 7.08 µM [inhibitor, partial curve] | – |
| CC(C(=O)O)N1C(=O)C2C3CC(C2C1=O)C1C(c2ccccc2)c2sc(=O)[nH]c2SC31 (centres undefined) | inconclusive: 14 µM [inhibitor, partial curve] | – |
| COc1c(OC)c(O)c2c(=O)c(O)c(-c3ccccc3)oc2c1OC | inconclusive: 31.6 µM [inhibitor, partial curve] | – |
| COc1ccc(NC(=S)N/N=C2\CC(C)(C)Oc3ccc(O)cc32)cc1 | active: 8.91 µM | – |
| Oc1ccccc1N1CCN(c2nc(-c3cccs3)nc3ccccc23)CC1 | active: 39.8 µM | – |
| O=c1oc2cc([N+](=O)[O-])ccc2nc1/C=C(\O)c1cccc(Br)c1 | inconclusive: 20 µM [inhibitor, partial curve] | – |
